Results as given in article PMC12210021.
These are yes or no findings as the source states them, for the method shown. Binding seen in cells or lysates may run through a third protein. Some entries that bind do so weakly or less than the wild type.

T1: TRIM29 (endogenous, mouse primary IECs) (mouse (endogenous in primary IECs from mouse intestinal organoids)) (UniProt Q8R2Q0)
T1 sequence: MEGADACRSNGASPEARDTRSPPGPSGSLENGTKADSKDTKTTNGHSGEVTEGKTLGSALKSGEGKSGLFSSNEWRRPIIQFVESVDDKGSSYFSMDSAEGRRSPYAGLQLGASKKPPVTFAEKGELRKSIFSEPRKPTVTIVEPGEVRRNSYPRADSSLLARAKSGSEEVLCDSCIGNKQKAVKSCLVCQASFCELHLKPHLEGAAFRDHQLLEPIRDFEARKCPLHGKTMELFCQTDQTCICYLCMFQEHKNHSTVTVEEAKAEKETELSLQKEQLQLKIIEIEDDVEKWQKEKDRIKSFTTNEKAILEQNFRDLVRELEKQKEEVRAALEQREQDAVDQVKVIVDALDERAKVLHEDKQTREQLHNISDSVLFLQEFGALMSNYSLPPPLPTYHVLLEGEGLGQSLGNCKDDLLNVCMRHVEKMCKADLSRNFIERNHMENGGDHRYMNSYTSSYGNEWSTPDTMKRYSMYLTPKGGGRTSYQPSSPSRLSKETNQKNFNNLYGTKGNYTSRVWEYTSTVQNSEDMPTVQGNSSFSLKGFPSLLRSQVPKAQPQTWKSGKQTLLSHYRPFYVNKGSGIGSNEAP

T2: NLRP6 (endogenous, mouse primary IECs) (mouse (endogenous in primary IECs from mouse intestinal organoids)) (UniProt Q91WS2)
T2 sequence: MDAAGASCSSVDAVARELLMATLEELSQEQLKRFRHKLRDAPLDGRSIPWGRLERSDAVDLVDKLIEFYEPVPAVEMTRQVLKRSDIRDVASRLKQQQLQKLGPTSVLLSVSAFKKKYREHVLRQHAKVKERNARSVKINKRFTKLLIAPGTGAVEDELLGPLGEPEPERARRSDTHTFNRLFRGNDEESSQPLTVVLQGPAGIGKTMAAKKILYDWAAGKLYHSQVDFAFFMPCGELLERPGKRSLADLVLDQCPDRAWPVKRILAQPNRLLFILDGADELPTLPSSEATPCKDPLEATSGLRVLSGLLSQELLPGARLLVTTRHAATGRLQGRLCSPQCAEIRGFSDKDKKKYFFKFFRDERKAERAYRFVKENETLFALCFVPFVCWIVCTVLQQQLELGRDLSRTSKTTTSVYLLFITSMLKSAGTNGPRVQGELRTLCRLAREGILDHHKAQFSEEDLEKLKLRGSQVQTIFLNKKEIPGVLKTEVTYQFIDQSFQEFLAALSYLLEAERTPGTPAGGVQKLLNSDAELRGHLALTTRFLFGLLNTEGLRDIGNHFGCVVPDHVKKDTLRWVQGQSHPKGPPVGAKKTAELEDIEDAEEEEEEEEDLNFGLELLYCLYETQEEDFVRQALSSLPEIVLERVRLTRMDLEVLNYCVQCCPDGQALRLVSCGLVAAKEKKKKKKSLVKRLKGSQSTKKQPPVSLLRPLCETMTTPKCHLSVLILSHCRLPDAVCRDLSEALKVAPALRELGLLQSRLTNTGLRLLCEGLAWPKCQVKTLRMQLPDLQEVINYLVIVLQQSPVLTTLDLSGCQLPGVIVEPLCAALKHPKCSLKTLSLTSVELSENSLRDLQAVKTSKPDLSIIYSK

B1: NLRP6 (endogenous, mouse primary IECs) (protein, UniProt Q91WS2 1-869)
chain: T2 sequence
B2: NLRP9b (endogenous, mouse primary IECs) (protein, UniProt Q66X22 1-1003)
chain: MAGSSGYGLLKLLQKLSDEEFQRFKELLREEPEKFKLKPISWTKIENSSKESLVTLLNTHYPGQAWNMMLSLFLQVNREDLSIMAQKKKRHKQTKYKKFMKTTFERIWTLETNTHIPDRNYHLIVEVQYKALQEIFDSESEPVTAIVAGTTGEGKTTFLRKAMLDWASGVLLQNRFQYVFFFSVFSLNNTTELSLAELISSTLPESSETVDDILSDPKRILFILDGFDYLKFDLELRTNLCNDWRKRLPTQIVLSSLLQKIMLPGCSLLLELGQISVPKIRHLLKYPRVITMQGFSERSVEFYCMSFFDNQRGIEVAENLRNNEVLHLCSNPYLCWMFCSCLKWQFDREEEGYFKAKTDAAFFTNFMVSAFKSTYAHSPSKQNRARLKTLCTLAVEGMWKELFVFDSEDLRRNGISESDKAVWLKMQFLQTHGNHTVFYHPTLQSYFAAMFYFLKQDKDICVPVIGSIPQLLGNMYARGQTQWLQLGTFLFGLINEQVAALLQPCFGFIQPIYVRQEIICYFKCLGQQECNEKLERSQTLFSCLRDSQEERFVRQVVDLLEEITVDISSSDVLSVTAYALQKSSKLKKLHLHIQKTVFSEIYCPDHCKTRTSIGKRRNTAEYWKTLCGIFCNLYVLDLDSCQFNKRAIQDLCNSMSPTPTVPLTAFKLQSLSCSFMADFGDGSLFHTLLQLPHLKYLNLYGTYLSMDVTEKLCAALRCSACRVEELLLGKCGISSKACGIIAISLINSKVKHLSLVENPLKNKGVMSLCEMLKDPSCVLQSLMLSYCCLTFIACGHLYEALLSNKHLSLLDLGSNFLEDTGVNLLCEALKDPNCTLKELWLPGCFLTSQCCEEISAVLICNRNLKTLKLGNNNIQDTGVRQLCEALSHPNCNLECLGLDLCEFTSDCCKDLALALTTCKTLNSLNLDWKTLDHSGLVVLCEALNHKRCNLKMLGLDKSAFSEESQTLLQDVEKKNNNLNILHHPWFEAERNKRGTRLVWNSRN
B3: TRIM29 (endogenous, mouse primary IECs) (protein, UniProt Q8R2Q0 1-587)
chain: T1 sequence

Tests used:
[1] = target: T1, TRIM29 (endogenous, mouse primary IECs) (mouse (endogenous in primary IECs from mouse intestinal organoids)); assay: co-IP; endogenous proteins; anti-TRIM29 (or anti-NLRP6) antibody and protein A/G agarose beads from whole-cell lysates of primary IECs from mouse intestinal organoids infected with EMCV or Rotavirus at MOI of 5 for 4 h, then MG132 (5 uM) for 3 h; lysis buffer 50 mM Tris-Cl pH 7.5, 1 mM EDTA, 150 mM NaCl, 1.0 % NP-40; control IgG
[2] = target: T1, TRIM29 (endogenous, mouse primary IECs) (mouse (endogenous in primary IECs from mouse intestinal organoids)); assay: co-IP; endogenous proteins; anti-TRIM29 antibody and protein A/G agarose beads from whole-cell lysates of primary IECs from mouse intestinal organoids without infection (Mock), MG132 (5 uM) before lysis
[3] = target: T2, NLRP6 (endogenous, mouse primary IECs) (mouse (endogenous in primary IECs from mouse intestinal organoids)); assay: co-IP; endogenous proteins; anti-TRIM29 (or anti-NLRP6) antibody and protein A/G agarose beads from whole-cell lysates of primary IECs from mouse intestinal organoids infected with EMCV or Rotavirus at MOI of 5 for 4 h, then MG132 (5 uM) for 3 h; lysis buffer 50 mM Tris-Cl pH 7.5, 1 mM EDTA, 150 mM NaCl, 1.0 % NP-40; control IgG

Binder | binding [1] | binding [2] | binding [3]
B1 | binds | no binding (condition: without infection (Mock)) | –
B2 | binds | no binding (condition: without infection (Mock)) | –
B3 | – | – | binds
